{
  "source": "PubChem BioAssay AID485364",
  "about": "(National Center for Advancing Translational Sciences (NCATS), 2010)",
  "note": "Screen size: about 360,000 compounds; about 11,000 (3.1%) were called active. This list was built around the results that the source calls inconclusive (neither active nor inactive); the mix of calls is not that of the screen. The call rests on the fitted dose curve; in most records, active means well fitted inhibition curve with a large enough effect; inconclusive means small, poorly fitted or top-dose-only effect; inactive means no such curve, though single readings can be large or run the other way. Potencies of inconclusive entries are left out as doubtful fits. On the % scale 0 is the no-effect control and ±100 the full control effect; potency means the concentration at half of the fitted maximal effect; tags describe the fitted curve by direction and shape.",
  "data": [
    {"molecular_target": "Schistosoma mansoni thioredoxin glutathione reductase (TGR) (UniProt Q962Y6)", "assay": "qHTS Assay for the Inhibitors of Schistosoma Mansoni Peroxiredoxins; further: nearly all actives have a fitted effect of over 60% in size", "details": "purified TGR, DTNB reduction, TNB absorbance 405 nm; activity change, negative = inhibition: at 114 µM (top of the series) unless noted", "procedure,_shortened": "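First, TGR (20 nM dispensed) and NADPH were mixed with compound. Second, a 15 min room-temperature incubation followed. Third, further NADPH and then DTNB were added to start the reaction. Finally, TNB absorbance was monitored kinetically.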", "values": [
      {"smiles": "Cc1ccc(CNC(=O)C(=O)NCC(c2ccco2)S(=O)(=O)c2cccs2)cc1", "note": "(stereo unspecified)", "Potency": "inconclusive [inhibitor, partial curve]"},
      {"smiles": "CCN1CCN(C(c2ccc(F)cc2)c2c(O)cc(C)n(CCOC)c2=O)CC1", "note": "(stereo unspecified)", "Potency": "active: 4.47 µM"},
      {"smiles": "CCCCCCSc1ccc([C@H]2N[C@@](Cc3ccccc3)(C(=O)OC)[C@H]3C(=O)N(C)C(=O)[C@@H]23)cc1OC", "activity change, negative = inhibition": "inactive: -6.73%"},
      {"smiles": "CCc1c(C)sc(NC(=O)/C=C/C(=O)O)c1C(N)=O", "Potency": "inconclusive [inhibitor, partial curve]"},
      {"smiles": "COc1ccc(C(c2c(O)ccc3ccccc23)N2CCOCC2)c(OC)c1", "note": "(stereo unspecified)", "Potency": "active: 3.55 µM"},
      {"smiles": "COCCn1c(=S)[nH]c2cc(C(=O)N3CCCC(C)C3)ccc2c1=O", "note": "(stereo unspecified)", "activity change, negative = inhibition": "inactive: -6.46%"},
      {"smiles": "O=C(CCN1CCN(c2ccccc2F)CC1)Nc1ccc(F)cc1", "Potency": "inconclusive [inhibitor, partial curve]"},
      {"smiles": "CCn1c(SCC(=O)Nc2sc3c(c2C(N)=O)CCC(C)C3)nnc1-c1ccco1", "note": "(stereo unspecified)", "Potency": "inconclusive [inhibitor, full curve]"},
      {"smiles": "O=c1[nH]c(=O)n(CC2CCCO2)c(O)c1/C=C1\\C=Nc2ccccc21", "note": "(stereo unspecified)", "Potency": "inconclusive [inhibitor, full curve]"},
      {"smiles": "COC(=O)c1c(CCl)noc1C(=O)NC(C)C", "Potency": "inconclusive [inhibitor, partial curve]"},
      {"smiles": "CN(C)CCCN1C(=O)c2cccc3c(Br)ccc(c23)C1=O", "Potency": "active: 8.91 µM"},
      {"smiles": "CC(C)c1ccc(NC(=O)c2cc(S(=O)(=O)NCc3ccccc3Cl)ccc2F)cc1", "activity change, negative = inhibition": "inactive: 0.283%"},
      {"smiles": "CCOc1ccccc1NC(=O)C(c1ccccc1)N1CCN(C(=O)c2ccco2)CC1", "note": "(stereo unspecified)", "Potency": "inconclusive [inhibitor, full curve]"},
      {"smiles": "O=C(CCSCCC(=O)NCc1cccs1)NCc1cccs1", "Potency": "active: 39.8 µM"},
      {"smiles": "COc1cccc(CN2CCNC(=O)C2CC(=O)NCc2cc(C(C)C)no2)c1", "note": "(stereo unspecified)", "Potency": "inconclusive [inhibitor, partial curve]"},
      {"smiles": "Cc1cccc(NC2=CC(c3cccc(Br)c3)N(c3cccc(C)c3)C2=O)c1", "note": "(stereo unspecified)", "Potency": "inconclusive [inhibitor, full curve]"},
      {"smiles": "Cc1ccsc1C1Nc2ccccc2C(=O)N1O", "note": "(stereo unspecified)", "activity change, negative = inhibition": "inactive: -11.9%"},
      {"smiles": "Cc1c(/C=N/NC(=O)c2cc(Br)ccc2O)c(=O)n(C)c(=O)n1C", "Potency": "inconclusive [inhibitor, partial curve]"},
      {"smiles": "CN1CCCN(Cc2nc(-c3ccc(Cl)cc3)no2)CC1", "Potency": "active: 17.8 µM"},
      {"smiles": "COc1ccc(-n2ncc3c2CC(C)(C)CC3NC(=O)c2ccoc2C)cc1", "note": "(stereo unspecified)", "Potency": "inconclusive [inhibitor, partial curve]"},
      {"smiles": "c1ccc(COc2cccc(CNCc3cccs3)c2)cc1", "activity change, negative = inhibition": "inactive: 0.48%"},
      {"smiles": "CC(=O)c1ccc(OCC(=O)OCc2cc(-c3ccco3)on2)cc1", "Potency": "active: 50.1 µM"},
      {"smiles": "CC1(C)CC(=O)C2=C(C1)N(CC1CCCO1)C(=O)NC2(C(F)(F)F)C(F)(F)F", "note": "(stereo unspecified)", "activity change, negative = inhibition": "inactive: -24.3%"},
      {"smiles": "CCSc1nc2c([nH]c3ccccc32)c(=O)n1C", "Potency": "inconclusive [inhibitor, single point]"},
      {"smiles": "O=C(CCN1CCc2ccccc2C1)Nc1ccccc1", "activity change, negative = inhibition": "inactive: -4.39%"},
      {"smiles": "COC(=O)CCC(=O)OC1(C)C(=O)C2=CN(CCCOC(C)C)C(c3ccc(OC)cc3)=CC2=C(Br)C1=O", "note": "(stereo unspecified)", "Potency": "inconclusive [inhibitor, partial curve]"},
      {"smiles": "Cc1c(O)c(CN2CCCC2)cc2c3c(c(=O)oc12)CCC3", "Potency": "inconclusive [inhibitor, partial curve]"},
      {"smiles": "COc1ccc(CNC(=O)CSc2ncc(S(=O)(=O)c3ccc(C)c(Cl)c3)c(=O)[nH]2)cc1", "activity change, negative = inhibition": "inactive: -3.68%"},
      {"smiles": "CC(=O)Nc1cccc(S(=O)(=O)N2CCCCCC2)c1", "activity change, negative = inhibition": "inactive: 6.14%"},
      {"smiles": "O=C(Nc1cccc2cccnc12)c1ccc(Br)o1", "Potency": "inconclusive [inhibitor, partial curve]"},
      {"smiles": "CN(C)CCN(C(=O)c1ccco1)c1nc2cc3c(cc2s1)OCCO3", "activity change, negative = inhibition": "inactive: -1.3%"},
      {"smiles": "CC(OC(=O)c1nsc(Cl)c1Cl)C(=O)NCc1ccco1", "note": "(stereo unspecified)", "Potency": "inconclusive [inhibitor, partial curve, poor fit]"},
      {"smiles": "CCc1ccc2[nH]c(=O)c(CN(Cc3ccco3)S(=O)(=O)c3ccc4c(c3)OCCO4)cc2c1", "Potency": "inconclusive [inhibitor, full curve, poor fit]"},
      {"smiles": "COc1ccc(Br)cc1CNC(=O)c1nn(-c2ccc(C)cc2)c(=O)c2c1c1ccccc1n2C", "activity change, negative = inhibition": "inactive: 2.3%"},
      {"smiles": "Cc1c(C(=O)N2CCN(Cc3cccs3)CC2)oc2ccccc12", "Potency": "inconclusive [inhibitor, single point]"},
      {"smiles": "COc1ccc(OC)c(NC(=O)c2ccccc2NC(=O)c2ccco2)c1", "activity change, negative = inhibition": "inactive: -1.34%"},
      {"smiles": "O=C(NC1CCSc2ccccc21)c1cccc(Cl)c1", "note": "(stereo unspecified)", "Potency": "active: 7.94 µM"},
      {"smiles": "CCOC(=O)C1=C(C)NC(=O)NC1c1ccc(N2CCC(c3ccccc3)=N2)cc1", "note": "(stereo unspecified)", "Potency": "inconclusive [inhibitor, full curve, poor fit]"},
      {"smiles": "O=C(N/N=C/c1ccc(O)c(O)c1)N/N=C/c1ccc(O)c(O)c1", "Potency": "inconclusive [inhibitor, full curve, poor fit]"},
      {"smiles": "O=C(/C=C/c1ccc(-c2ccccc2[N+](=O)[O-])o1)c1ccccc1", "Potency": "inconclusive [inhibitor, partial curve]"},
      {"smiles": "C=CCNC(=S)Nc1cccc(NC(=S)NCC=C)c1", "Potency": "inconclusive [inhibitor, partial curve]"},
      {"smiles": "CCCOc1ccc(Oc2nc(NCC(C)C)nc(N3CCOCC3)n2)nn1", "Potency": "inconclusive [inhibitor, single point]"},
      {"smiles": "COc1ccc(NC(=O)C(=O)NCC(c2ccco2)N2CCc3ccccc3C2)cc1OC", "note": "(stereo unspecified)", "Potency": "inconclusive [inhibitor, partial curve]"},
      {"smiles": "CC(OC(=O)c1cccc(-n2cnnn2)c1)C(=O)Nc1ccc(F)cc1Cl", "note": "(stereo unspecified)", "activity change, negative = inhibition": "inactive: -2.6%"},
      {"smiles": "Clc1ccc(OCc2nnc(SCc3nc4ccccc4[nH]3)n2Cc2ccco2)cc1", "Potency": "inconclusive [inhibitor, full curve, poor fit]"},
      {"smiles": "CC(C)C[C@H]1C(=O)N2CCCC2[C@]2(O)O[C@](NC(=O)[C@@H]3C=C4c5cccc6[nH]cc(c56)CC4N(C)C3)(C(C)C)C(=O)N12", "note": "(stereo partly specified)", "Potency": "active: 10 µM"}
    ]}
  ]
}
